This is one part of the list. Many values rest on one well or one pass, so single values are uncertain.
Assays:
Assay in all cases: cell count relative to DMSO control; melanoma cells; higher = more viable cells
Settings in all cases: library dose: standard library concentration; 72 h; first compound 2 µM
G361 = tested on: G361
IPC-298 = tested on: IPC-298
IST-MEL1 = tested on: IST-MEL1
LOXIMVI = tested on: LOXIMVI
MEL-HO = tested on: MEL-HO
MeWo = tested on: MeWo
RPMI7951 = tested on: RPMI7951
RVH-421 = tested on: RVH-421
SkMel28 = tested on: SkMel28
SkMel30 = tested on: SkMel30
SkMel5 = tested on: SkMel5
UACC257 = tested on: UACC257
UACC62 = tested on: UACC62
WM115 = tested on: WM115
WM1716 = tested on: WM1716
WM1745 = tested on: WM1745
WM3526 = tested on: WM3526
SkMel2 = tested on: SkMel2
LB2518-MEL = tested on: LB2518-MEL
MZ2-MEL = tested on: MZ2-MEL
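Further: cells treated in 1,536-well plates, then fixed and DAPI-stained, with nuclei counted from automated high-throughput microscope images.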

For Cn1sc(=O)n(Cc2ccccc2)c1=O + NCC(=O)Nc1ccc(-n2nc(C(F)(F)F)cc2-c2ccc3c(ccc4ccccc43)c2)cc1 [OSU03012] (partner dose 5 µM), the cell count (G361) was 79.5%, the cell count (IPC-298) was 50.3% and the cell count (IST-MEL1) was 79.6%. It also gave a cell count (LOXIMVI) of 73.1%, a cell count (MEL-HO) of 72% and a cell count (MeWo) of 85.2%. It also gave a cell count (RPMI7951) of 62.4%, a cell count (RVH-421) of 67.6% and a cell count (SkMel28) of 16.2%. The cell count (SkMel30) was 58.7%, the cell count (SkMel5) was 52.6% and the cell count (UACC257) was 95.5%. For the same compound, the cell count (UACC62) was 78.9%, the cell count (WM115) was 84.8% and the cell count (WM1716) was 88.4%. The cell count (WM1745) was 79.3% and the cell count (WM3526) was 45%.
Compound Cn1sc(=O)n(Cc2ccccc2)c1=O + Nc1ccn([C@@H]2O[C@H](CO)[C@@H](O)C2(F)F)c(=O)n1 [gemcitabine] (partner dose 0.002 µM) has a cell count (G361) of 45.5%, a cell count (IPC-298) of 41.4% and a cell count (IST-MEL1) of 43.7%. The cell count (LOXIMVI) was 66.1%, the cell count (MEL-HO) was 53.5% and the cell count (MeWo) was 39.2%. The cell count (RPMI7951) was 45%, the cell count (RVH-421) was 46.8% and the cell count (SkMel28) was 127%. For the same compound, the cell count (SkMel2) was 97.2%, the cell count (SkMel30) was 118% and the cell count (SkMel5) was 69.8%. It also gave a cell count (UACC257) of 92.1%, a cell count (UACC62) of 87.3% and a cell count (WM115) of 62.7%. The cell count (WM1716) was 62.2%, the cell count (WM1745) was 45.6% and the cell count (WM3526) was 103%.
Cn1sc(=O)n(Cc2ccccc2)c1=O + COc1cc2ncnc(Nc3ccc(Oc4ccccc4)cc3)c2cc1OC [SrcI1] (partner dose 10 µM) gave a cell count (G361) of 55.9%, a cell count (IPC-298) of 74.2% and a cell count (IST-MEL1) of 91%. The cell count (LB2518-MEL) was 114%, the cell count (LOXIMVI) was 69.9% and the cell count (MEL-HO) was 69%. The cell count (MZ2-MEL) was 60%, the cell count (MeWo) was 65.4% and the cell count (RPMI7951) was 35.4%. For the same compound, the cell count (RVH-421) was 92.8%, the cell count (SkMel28) was 56.5% and the cell count (SkMel2) was 67.9%. For the same compound, the cell count (SkMel30) was 73.3%, the cell count (SkMel5) was 71.1% and the cell count (UACC257) was 94.6%. For the same compound, the cell count (UACC62) was 60.8%, the cell count (WM115) was 78.6% and the cell count (WM1716) was 76.3%. For the same compound, the cell count (WM3526) was 55.2%.
Work on CCCCCCCCCCCCCCCCCCOP(=O)([O-])OC1CC[N+](C)(C)CC1 [Perifosine] + CO[C@H]1C[C@@H]2CC[C@@H](C)[C@@](O)(O2)C(=O)C(=O)N2CCCC[C@H]2C(=O)O[C@H]([C@H](C)C[C@@H]2CC[C@@H](OCCO)[C@H](OC)C2)CC(=O)[C@H](C)/C=C(\C)[C@@H](O)[C@@H](OC)C(=O)[C@H](C)C[C@H](C)/C=C/C=C/C=C/1C [everolimus] (partner dose 0.1 µM) yielded a cell count (G361) of 55.4%, a cell count (IPC-298) of 70.9% and a cell count (IST-MEL1) of 78.8%. The cell count (LOXIMVI) was 72.9%, the cell count (MEL-HO) was 73.4% and the cell count (MeWo) was 73.7%. It also gave a cell count (RPMI7951) of 38.2%, a cell count (RVH-421) of 59.1% and a cell count (SkMel28) of 47%. It also gave a cell count (SkMel2) of 71.6%, a cell count (SkMel30) of 72.5% and a cell count (SkMel5) of 60.6%. It also gave a cell count (UACC257) of 103%, a cell count (UACC62) of 56.5% and a cell count (WM115) of 61.6%. For the same compound, the cell count (WM1716) was 82.5%, the cell count (WM1745) was 83.8% and the cell count (WM3526) was 69.5%.
CCCCCCCCCCCCCCCCCCOP(=O)([O-])OC1CC[N+](C)(C)CC1 [Perifosine] + COc1ccc(COc2ccc(Cc3cnc(N)nc3N)cc2OC)cc1 [GW2580] (partner dose 5 µM) was tested, and the cell count (G361) was 81.1%, the cell count (IPC-298) was 97.6% and the cell count (IST-MEL1) was 97.8%. The cell count (LB2518-MEL) was 117%, the cell count (LOXIMVI) was 85.6% and the cell count (MEL-HO) was 93.6%. It also gave a cell count (MZ2-MEL) of 97.1%, a cell count (MeWo) of 107% and a cell count (RPMI7951) of 43.9%. For the same compound, the cell count (RVH-421) was 91.5%, the cell count (SkMel28) was 62.4% and the cell count (SkMel2) was 100%. The cell count (SkMel30) was 93.6%, the cell count (SkMel5) was 95.7% and the cell count (UACC257) was 101%. The cell count (UACC62) was 90.5%, the cell count (WM115) was 101% and the cell count (WM1716) was 103%. For the same compound, the cell count (WM3526) was 89.3%.
In the case of C[C@@H](N)c1ccc(C(=O)Nc2ccnc3[nH]ccc23)cc1 + COc1ccc(COc2ccc(Cc3cnc(N)nc3N)cc2OC)cc1 [GW2580] (partner dose 5 µM), the cell count (G361) is reported as 68.8%, the cell count (IPC-298) is reported as 87.2% and the cell count (IST-MEL1) is reported as 79.2%. The cell count (LB2518-MEL) was 116%, the cell count (LOXIMVI) was 96.5% and the cell count (MEL-HO) was 73.7%. For the same compound, the cell count (MZ2-MEL) was 46.5%, the cell count (MeWo) was 58.3% and the cell count (RPMI7951) was 61.1%. For the same compound, the cell count (RVH-421) was 60.8%, the cell count (SkMel28) was 78.5% and the cell count (SkMel2) was 85%. The cell count (SkMel30) was 99.3%, the cell count (SkMel5) was 39.6% and the cell count (UACC257) was 60.2%. It also gave a cell count (UACC62) of 71.6%, a cell count (WM115) of 92.5% and a cell count (WM1716) of 30.3%. It also gave a cell count (WM3526) of 79.7%.
Compound C[C@@H](N)c1ccc(C(=O)Nc2ccnc3[nH]ccc23)cc1 + CCN(CC)CCCCNc1ncc2cc(-c3cc(OC)cc(OC)c3)c(NC(=O)NC(C)(C)C)nc2n1 [PD173074] (partner dose 0.5 µM) has a cell count (G361) of 87.5%, a cell count (IPC-298) of 90.6% and a cell count (IST-MEL1) of 84%. The cell count (LB2518-MEL) was 126%, the cell count (LOXIMVI) was 75.8% and the cell count (MEL-HO) was 72.3%. The cell count (MZ2-MEL) was 50.8%, the cell count (MeWo) was 64.8% and the cell count (RPMI7951) was 51.6%. For the same compound, the cell count (RVH-421) was 50.6%, the cell count (SkMel28) was 65.1% and the cell count (SkMel2) was 96.6%. For the same compound, the cell count (SkMel30) was 113%, the cell count (SkMel5) was 52.7% and the cell count (UACC257) was 57.2%. For the same compound, the cell count (UACC62) was 67.6%, the cell count (WM115) was 98.2% and the cell count (WM1716) was 73%. The cell count (WM3526) was 97%.
Work on Cn1sc(=O)n(Cc2ccccc2)c1=O + Cn1cc(/C=C2\C(=O)Nc3cccnc32)c2ccccc21 [GW441756] (partner dose 2 µM) yielded a cell count (G361) of 93.4%, a cell count (IPC-298) of 101% and a cell count (IST-MEL1) of 99.6%. It also gave a cell count (LB2518-MEL) of 102%, a cell count (LOXIMVI) of 85.6% and a cell count (MEL-HO) of 86%. The cell count (MZ2-MEL) was 89%, the cell count (MeWo) was 90.9% and the cell count (RPMI7951) was 73.1%. The cell count (RVH-421) was 116%, the cell count (SkMel28) was 29.1% and the cell count (SkMel2) was 98.3%. It also gave a cell count (SkMel30) of 81.7%, a cell count (SkMel5) of 49% and a cell count (UACC257) of 85.3%. The cell count (UACC62) was 73%, the cell count (WM115) was 105% and the cell count (WM1716) was 104%. The cell count (WM3526) was 88.9%.
C[C@@H](N)c1ccc(C(=O)Nc2ccnc3[nH]ccc23)cc1 + O=C1NC(=O)/C(=C/c2ccc(-c3ccc(F)cc3O)o2)S1 [AS252424] (partner dose 5 µM) showed a cell count (G361) of 79%, a cell count (IPC-298) of 112% and a cell count (IST-MEL1) of 89.9%. For the same compound, the cell count (LB2518-MEL) was 92.6%, the cell count (LOXIMVI) was 77.3% and the cell count (MEL-HO) was 62.3%. It also gave a cell count (MZ2-MEL) of 63.9%, a cell count (MeWo) of 59.7% and a cell count (RPMI7951) of 52.5%. It also gave a cell count (RVH-421) of 46.3%, a cell count (SkMel28) of 84% and a cell count (SkMel2) of 85.7%. The cell count (SkMel30) was 65.1%, the cell count (SkMel5) was 49.1% and the cell count (UACC257) was 58.7%. It also gave a cell count (UACC62) of 81.1%, a cell count (WM115) of 98.4% and a cell count (WM1716) of 23.2%. The cell count (WM3526) was 68.3%.
With Cn1sc(=O)n(Cc2ccccc2)c1=O + CCCCCCCCCCCC1=C(O)C(=O)C=C(O)C1=O [Embelin] (partner dose 6 µM) the cell count (G361) was 83.8%, the cell count (IPC-298) was 59.3% and the cell count (IST-MEL1) was 63.8%. The cell count (LB2518-MEL) was 79.2%, the cell count (LOXIMVI) was 100% and the cell count (MEL-HO) was 83.1%. The cell count (MZ2-MEL) was 81.9%, the cell count (MeWo) was 115% and the cell count (RPMI7951) was 108%. For the same compound, the cell count (RVH-421) was 59.5%, the cell count (SkMel28) was 90.4% and the cell count (SkMel2) was 80.5%. The cell count (SkMel30) was 84.2%, the cell count (SkMel5) was 87.6% and the cell count (UACC257) was 84.5%. The cell count (UACC62) was 102%, the cell count (WM115) was 73.5% and the cell count (WM1716) was 82.9%. For the same compound, the cell count (WM3526) was 79.9%.

— the supplement of paper PMC4604168 (melanoma cell lines)
